Reference: PubChem BioAssay AID624417 (National Center for Advancing Translational Sciences (NCATS), 2012)
Screen size: about 410,000 compounds; about 6,400 (1.6%) were called active. The inconclusive results got no clear call from the source; some entries with a clear call stand among them for comparison. Calls follow the shape of the dose curve; as a rule, active = well fitted inhibition curve with a large enough effect; inconclusive = small, poorly fitted or top-dose-only effect; inactive = no such curve, though single readings can be large or run the other way. Potencies of inconclusive entries are left out as doubtful fits.

What follows are compounds tested against Glucagon-like peptide 1 receptor (Homo sapiens) (UniProt P43220) (assay: qHTS of GLP-1 Receptor Inverse Agonists (Inhibition Mode)). Conditions: HEK293 GLP-1R CRE-luciferase, luminescence, 24 h, GLP-1R form is constitutively active; activity change, negative = inhibition: at 38.3 µM (top of the series) unless noted.
UniProt P43220, sequence (P43220 whole entry, looked up): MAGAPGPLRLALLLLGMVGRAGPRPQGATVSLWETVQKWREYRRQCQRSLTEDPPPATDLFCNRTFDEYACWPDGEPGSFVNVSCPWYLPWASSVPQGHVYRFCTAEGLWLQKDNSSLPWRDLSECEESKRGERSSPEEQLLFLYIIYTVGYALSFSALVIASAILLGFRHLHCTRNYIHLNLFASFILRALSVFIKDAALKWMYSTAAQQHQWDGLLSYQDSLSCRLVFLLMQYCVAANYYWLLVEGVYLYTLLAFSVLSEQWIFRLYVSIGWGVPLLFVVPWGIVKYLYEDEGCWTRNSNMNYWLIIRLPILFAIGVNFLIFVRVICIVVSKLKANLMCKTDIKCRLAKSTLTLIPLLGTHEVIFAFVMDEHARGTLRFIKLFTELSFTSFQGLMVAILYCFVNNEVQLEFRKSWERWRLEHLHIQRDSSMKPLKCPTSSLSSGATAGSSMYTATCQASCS
How it was run: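 GLP-1R inverse agonism mode: basal reporter luminescence in engineered HEK293 cells measured after one day of compound exposure at 37 deg C, with a 12 min room-temperature detection step.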
% is scaled to controls: 0 for no effect and ±100 for the full control effect; potency is read from the fitted curve at half-maximal effect; tags tell the direction and shape of the fitted curve.
Also: nearly all actives have a fitted effect of over 55% in size.

Structure (SMILES) | Potency | activity change, negative = inhibition
C(=N\Nc1nc2ccccc2[nH]1)/c1ccccn1 | inconclusive [inhibitor, partial curve, poor fit] | 
CSc1nc(N)nc2c1ncn2CC(=O)NCc1ccccc1 |  | inactive: 8.95%
O=C(NC(=S)Nc1cc(C(F)(F)F)ccc1Cl)c1ccccc1 | inconclusive [inhibitor, partial curve, poor fit] | 
CCc1cccc(NC(=O)CN(C)S(=O)(=O)c2cccc3nsnc23)c1 | inconclusive [inhibitor, single point] | 
Cc1cc(S(=O)(=O)N2CCOCC2)ccc1OCC(=O)Nc1ccc(Br)cc1F |  | inactive: -4.58%
COc1ccc(NC(=O)c2cccs2)cc1C(=O)N1CCN(c2ccccc2)CC1 | inconclusive [inhibitor, partial curve] | 
COc1ccccc1CNC(=O)C1(C)CCN1C(=O)C1(c2ccccc2)CC1 (centres undefined) | inconclusive [inhibitor, partial curve, poor fit] | 
Nc1ccc(Cl)cc1/C(=N/O)c1ccccc1 | inconclusive [inhibitor, partial curve, poor fit] | 
COc1ccccc1CCNC(=O)Nc1cccc([N+](=O)[O-])c1 | inconclusive [inhibitor, partial curve, poor fit] | 
C=CC[C@@H](CC(=O)N(CCO)Cc1ccccc1)C(=O)N[C@H](COC(=O)[C@@H](CC=C)Cc1ccc(F)cc1)c1ccccc1 | inconclusive [inhibitor, partial curve, poor fit] | 
CC(=O)Nc1ccc(Cl)cc1-c1ccccc1 | inconclusive [inhibitor, partial curve] | 
COc1cccc(S(=O)(=O)Nc2ccc(C(O)(C(F)(F)F)C(F)(F)F)cc2)c1 | inconclusive [inhibitor, single point] | 
O=S(=O)(NCCc1cn2ccccc2n1)c1ccc(-c2ccccc2)cc1 | inconclusive [inhibitor, partial curve, poor fit] | 
CCN(CC)S(=O)(=O)c1ccc2c(c1)N(CC(=O)N1CCN(c3cccc(C(F)(F)F)c3)CC1)C(=O)CO2 | inconclusive [inhibitor, single point] | 
Cc1ccc(-c2nnc(SCC(=O)Nc3ccc4c(c3)OCCO4)n2N)cc1 | inconclusive [inhibitor, partial curve, poor fit] | 
CN(C)c1ccc(C#Cc2ccc3cc(CCCO)oc(=O)c3c2)cc1 |  | inactive: 6.16%
O=C(CCNC(=O)Cn1ccc2ccccc2c1=O)NCCN1CCN(c2cccc(Cl)c2)CC1 | inconclusive [inhibitor, partial curve, poor fit] | 
CC(C)c1ccc(/C=C(\c2nc3ccccc3[nH]2)S(=O)(=O)c2ccccc2)cc1 | inconclusive [inhibitor, full curve, poor fit] | 
COc1ccccc1/C=C/CN1CCCC(CCC(=O)NCc2ccccc2F)C1 (centres undefined) | inconclusive [inhibitor, partial curve] | 
O=C(Nc1cc(Oc2ccc(Cl)cc2)cc([N+](=O)[O-])c1)c1ccco1 | inconclusive [inhibitor, partial curve, poor fit] | 

Structure (SMILES) | Potency | activity change, negative = inhibition
Cc1nnc(SCC(=O)Nc2cc(-c3cc(C)c(C)cc3C)nn2-c2ccccc2)s1 | inconclusive [inhibitor, partial curve, poor fit] | 
Cc1ccccc1NC(=O)c1ccc(CN2CCc3ccccc3C2)cc1 | inconclusive [inhibitor, full curve, poor fit] | 
CC(C)(C)NC(=O)C(c1cccs1)N(CC1CCCO1)C(=O)c1ccc(-c2ccccc2)[nH]1 (centres undefined) | inconclusive [inhibitor, single point] | 
Cc1ccc([N+](=O)[O-])cc1N=C1C(=O)Nc2ccccc21 | inconclusive [inhibitor, partial curve] | 
COc1ccc(C(=O)N/N=C/C(Br)=C/c2ccccc2)cc1 |  | inactive: 7.17%
O=C(NNC(=S)NCc1ccco1)C(c1ccccc1)c1ccccc1 | inconclusive [inhibitor, partial curve, poor fit] | 
CCCNS(=O)(=O)c1ccc(OCC(=O)N2CCCC2)cc1 |  | inactive: 8.36%
COc1ccc(-c2nn(C)c3sc(C(=O)Nc4cccc(F)c4)cc23)cc1OC | inconclusive [inhibitor, single point] | 
CCc1ccccc1Nc1nc(N)nc(COC(=O)C2=COCCO2)n1 | inconclusive [inhibitor, single point] | 
COc1ccc(/C(N)=N/OC(=O)CN(C)S(=O)(=O)c2ccc(C)cc2)cc1 | inconclusive [inhibitor, single point] | 
CC(C)COP(=O)(OCC(C)C)C(Nc1ccccc1)c1ccc(F)cc1 (centres undefined) | inconclusive [inhibitor, single point] | 
COc1ccc(C2N(c3ccc(C)cc3)CCN2c2ccc(C)cc2)cc1O | inconclusive [inhibitor, partial curve, poor fit] | 
Cc1c(Cl)cccc1-n1ncc(C(=O)Nc2ccc3c(c2)OCCO3)c1C1CCN(C(=O)OC(C)(C)C)CC1 | inconclusive [inhibitor, partial curve, poor fit] | 
Cc1noc(/C=C/N(C)C)c1S(=O)(=O)N1CCC(C(=O)Nc2ccc(Cl)cc2)CC1 | inconclusive [inhibitor, single point] | 
CCC1CN(C(=O)N2CCC(C(=O)NCc3ccc(OC)cc3OC)CC2)c2cc(C)ccc2O1 (centres undefined) |  | inactive: -20.4%
Cc1ccc(NC(=O)c2ccc(NCCCN3CCC(C)CC3)c([N+](=O)[O-])c2)c(C)c1 | inconclusive [inhibitor, single point] | 
Cn1c(SCC(=O)N2c3ccccc3CCc3ccccc32)nnc1-c1ccc(O)cc1 | inconclusive [inhibitor, partial curve, poor fit] | 
Cc1ccc(S(=O)(=O)Nc2ncnc3sc(C)c(C)c23)cc1 |  | inactive: -11.7%
CC(C)c1ccc(Nc2ncc3c(n2)CCN(C(=O)NC2CCCCC2)C3)cc1 | inconclusive [inhibitor, single point] | 
Cc1ccc(C2Nc3ccccc3-n3c(-c4ccccc4)c4c(=O)n(C)c(=O)n(C)c4c32)o1 (centres undefined) | inconclusive [inhibitor, single point] | 

Structure (SMILES) | Potency | activity change, negative = inhibition
Cc1ccc(OCc2nnc(SCC(=O)N3c4ccccc4Sc4ccc(Cl)cc43)o2)cc1 | inconclusive [inhibitor, partial curve, poor fit] | 
Fc1ccccc1N=C1Nc2cccc3cccc1c23 | inconclusive [inhibitor, single point] | 
COc1ccc(OC(F)(F)F)cc1CC1(C)C(=O)Nc2ccc(S(=O)(=O)NC3CCCCC3)cc21 (centres undefined) | inconclusive [inhibitor, single point] | 
COc1ccc(C(=S)Nc2ccc(C)cc2)cc1 |  | inactive: -6.02%
O=C(Nc1ccc(Cl)cc1)N1CCc2ccccc2C1 | inconclusive [inhibitor, single point] | 
Fc1cccc(Cl)c1Cn1nnc2c(NCc3ccccn3)ncnc21 | inconclusive [inhibitor, partial curve, poor fit] | 
CCN(CC)CCN(C(=O)c1ccco1)c1nc2ccc(Cl)cc2s1 | inconclusive [inhibitor, partial curve, poor fit] | 
Cc1ccc(COC(=O)c2cccc(S(=O)(=O)N3CCCCCC3)c2)cc1 | inconclusive [inhibitor, partial curve, poor fit] | 
O=C(NCCOc1ccccc1F)c1cccc(S(=O)(=O)N2CCN(c3ccccc3)CC2)c1 | inconclusive [inhibitor, partial curve, poor fit] | 
Cc1ccc(/C=C/C2=NN(Cc3ccccc3Cl)C(=O)CC2)cc1 | inconclusive [inhibitor, partial curve, poor fit] | 
O=C(OCC(=O)N(C1CCCCC1)C1CCCCC1)c1ccccc1O | inconclusive [inhibitor, partial curve, poor fit] | 
CC1CCN(C(CNS(=O)(=O)c2ccccc2)c2ccccc2)CC1 (centres undefined) | inconclusive [inhibitor, partial curve, poor fit] | 
Cn1c(SCc2ccc(F)cc2)nc2ccc(C(=O)NCc3ccc(F)cc3)cc21 | inconclusive [inhibitor, single point] | 
CC1(C)CCC(C)(C)NC(=S)N1 | inconclusive [inhibitor, partial curve, poor fit] | 
C[C@@]12C(=O)Nc3ccccc3C(=O)N1[C@H]1c3cc(Br)ccc3OC[C@@H]1[C@@H]2c1ccccc1 | inconclusive [inhibitor, partial curve, poor fit] | 
Cc1ccc(NC(=O)CN(C)C(=O)Cc2ccc(Cl)cc2Cl)cc1 | inconclusive [inhibitor, partial curve, poor fit] | 
O=C(c1ccc(S(=O)(=O)NCC2CCCO2)cc1)N1CCN(c2cccc(Cl)c2)CC1 (centres undefined) | inconclusive [inhibitor, single point] | 
COc1ccc2c(c1)CCc1c(C(=O)NCC(C)C)noc1-2 | inconclusive [inhibitor, partial curve, poor fit] | 
O=C(CSc1nnc(-c2cnccn2)n1Cc1ccco1)c1ccc(Cl)cc1 |  | inactive: 7.03%
